Experimental data taken from the supplement of paper PMC9334596.
“And” between values parts separate entries of the source, which are not always exact repeats. Equal values may be shown once. In all, about 5,300 compounds were measured (“PER2::LUC luminescence relative to vehicle control”: median about 0.96, highest 2% from about 1.3 on). This is one part of the list.

Tested on: mPer2Luc MEF
Assay: PER2::LUC luminescence relative to vehicle control (fold of vehicle); higher = higher PER2::LUC reporter signal
Conditions: 10 µM
Summary of the method: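 Each value gives PER2::LUC luminescence as fold of vehicle control, measured with the ONE-Glo luciferase assay system in mouse embryonic fibroblasts carrying the mPer2Luc reporter. Cells grown in DMEM with 10% FBS at 37 °C and 5% CO2 were seeded at ~3000 per well in 384-well plates. Library compounds were added at 10 μM 48 h later, and readings were taken 24 h and 30 h after treatment.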

Row | SMILES | PER2::LUC luminescence (time after treatment 24 h) | PER2::LUC luminescence (time after treatment 30 h)
1 | CC(C(=O)O)c1ccc(N2Cc3ccccc3C2=O)cc1 (stereo not drawn) | 1.02 | 1.34
2 | Cc1cc(/N=N/c2ccc(S(=O)(=O)Nc3ccccn3)cc2)c(N)cc1O | 0.688 | 0.741
3 | Oc1ccc(OCc2ccccc2)cc1 | 0.881 | 0.949
4 | COc1cccc(/C=N/N(C(=O)C(F)(F)F)c2ccc(C)cc2C)c1 | 0.818 | 0.768
5 | COC(=O)CNC(=O)C(=O)OC | 0.922 | 0.99
6 | CC(C)=CCC[C@]1(C)[C@@H](CC=C(C)C)C[C@@]2(CC=C(C)C)C(=O)[C@]1(C(=O)C(C)C)C(=O)C(CC=C(C)C)=C2O | 1.03 | 0.916
7 | CC(C)C1=CC2=CC[C@@H]3[C@](C)(CCC[C@@]3(C)C(=O)O)[C@H]2CC1 | 1.34 | 1.15
8 | CNC(=O)[C@H](Cc1c[nH]c2ccccc12)NC(=O)[C@@H](CC(=O)NO)CC(C)C | 1.15 | 1.04
9 | CC1=C([C@@H]2C=C3[C@@H](CC[C@]4(C)[C@@H]([C@H](C)CCCC(C)(C)O)CC[C@@H]34)n3c(=O)n(-c4ccccc4)c(=O)n32)C[C@@H](O)C[C@@H]1O | 0.906 | 0.964
10 | CCCn1c(=O)c2c(ncn2C)n(CCC)c1=O | 0.97 | 0.864
11 | C[C@H]1C[C@H]2[C@@H]3CCC4=CC(=O)C=C[C@]4(C)[C@@]3(F)[C@@H](O)C[C@]2(C)[C@@]1(O)C(=O)CO | 0.69 | 1.11
12 | O=C(O[C@@H]1Cc2c(O)cc(O)cc2O[C@@H]1c1cc(O)c(=O)c2c(O)c(O)cc([C@H]3Oc4cc(O)cc(O)c4C[C@H]3O)c2c1)c1cc(O)c(O)c(O)c1 | 0.88 | 0.825
13 | COC(=O)CC[C@@H](C)[C@H]1CC[C@H]2[C@@H]3CC[C@@H]4C[C@H](O)CC[C@]4(C)[C@H]3C[C@H](O)[C@]12C | 0.887 | 1.02
14 | O=C(O)/C=C/c1ccc(Cn2ccnc2)cc1 | 0.915 | 0.724
15 | CN1CCN(c2nc3cc(C(F)(F)F)ccc3n3cccc23)CC1 | 0.664 and 0.625 | 0.821 and 0.773
16 | CNC(=O)c1cc(COc2nnc(Nc3ccc(Cl)cc3)c3ccoc23)ccn1 | 0.902 | 0.844
17 | O=C[C@H](O)[C@@H](O)[C@H](O)CO (racemic) | 0.94 | 1.06
18 | CC(=O)O[C@H](CC(=O)O)C[N+](C)(C)C | 1.03 | 0.967
19 | CCCc1nc(C)c2c(=O)nc(-c3cc(S(=O)(=O)N4CCN(CC)CC4)ccc3OCC)[nH]n12 | 0.891 and 0.829 | 0.806 and 0.8
20 | CN1CCN(c2cc3c(nn2)Oc2ccccc2N3C)CC1 | 1.07 | 1.28
21 | CCn1nc(C(=O)O)c(=O)c2cc3c(cc21)OCO3 | 1.15 | 0.751
22 | O=C(O)C(S)C(S)C(=O)O (stereo not drawn) | 0.982 | 0.899
23 | COc1cc2c(cc1OC)C(c1ccc(N)cc1)=NNC(=O)C2 | 0.992 | 0.99
24 | Cc1cc(/C=C/c2ccc3cc(N(C)C)ccc3[n+]2C)c(C)n1-c1ccccc1 | 0.18 | 0.144
25 | O=c1c(-c2ccc(O)cc2)coc2c([C@@H]3O[C@H](CO)[C@@H](O)[C@H](O)[C@H]3O)c(O)ccc12 | 1.02 | 0.928
26 | CC(C)(Oc1ccc(C(=O)c2ccc(Cl)cc2)cc1)C(=O)O | 0.939 | 0.863
27 | CCCCNc1ccc(C(=O)OCCOCCOCCOCCOCCOCCOCCOCCOCCOC)cc1 | 1.07 | 0.94

Row | SMILES | PER2::LUC luminescence (time after treatment 24 h) | PER2::LUC luminescence (time after treatment 30 h)
28 | Cc1cc([C@@H](C)Nc2ccccc2C(=O)O)c2nc(N3CCOCC3)cc(=O)n2c1 | 0.852 | 0.769
29 | COc1cc(O)c(C(=O)Nc2nc(C(=O)NCCN(C(C)C)C(C)C)cs2)cc1OC | 0.893 | 0.853
30 | CCOc1nc2cccc(C(=O)O)c2n1Cc1ccc(-c2ccccc2-c2noc(=O)[nH]2)cc1 | 1.04 and 1.06 | 1.01 and 0.993
31 | CC(C)=CCC/C(C)=C/CC/C(C)=C/CC/C(C)=C/CC/C(C)=C/CC/C(C)=C/CC/C(C)=C/CC/C(C)=C/CC/C(C)=C/CO | 0.994 | 0.934
32 | O=S1(=O)OC(c2ccc(O)cc2)(c2ccc(O)cc2)c2ccccc21 | 0.9 | 0.927
33 | COCCOC(=O)C1=C(C)NC(C)=C(C(=O)OC/C=C/c2ccccc2)C1c1cccc([N+](=O)[O-])c1 (stereo not drawn) | 0.837 | 1.13
34 | CC1(C)C(/C=C/C=C/C=C/C=C2\N(CCCCS(=O)(=O)O)c3ccc4ccccc4c3C2(C)C)=[N+](CCCCS(=O)(=O)[O-])c2ccc3ccccc3c21 | 1.04 | 0.915
35 | CCCCN(CCCC)C(=O)CN1C[C@H](c2ccc3c(c2)OCO3)[C@@H](C(=O)O)[C@@H]1c1ccc(OC)cc1 | 2.23 | 2.08
36 | CC(C)c1cc(-c2ccc(F)c3ccccc23)nc(N)n1 | 0.882 | 0.987
37 | O=C(NOC[C@H](O)CO)c1ccc(F)c(F)c1Nc1ccc(I)cc1F | 0.224 | 0.161
38 | Cc1occc1C(=O)n1ccnc1 | 0.986 | 0.971
39 | Cc1cc(C)c(/C=C2\C(=O)Nc3ccccc32)[nH]1 | 1 and 0.897 and 0.813 | 0.969 and 0.927 and 0.792
40 | CC(C)/C(O)=C1/C(=O)O[C@@H](c2ccoc2)[C@]2(C)C(O)[C@@H](O)[C@@]34OC5(C)OC67CC(C)(C(O)[C@]6(O)[C@@H](O)[C@]3(O5)C12)[C@H](CC(=O)O)[C@]74C (stereo partly drawn) | 0.962 | 0.928
41 | CC[C@H]1OC(=O)[C@H](C)[C@@H](O[C@H]2C[C@@](C)(OC)[C@@H](O)[C@H](C)O2)[C@H](C)[C@@H](O[C@@H]2O[C@H](C)C[C@H](N(C)C)[C@H]2O)[C@](C)(O)C[C@@H](C)[C@@H]2N[C@@H](COCCOC)O[C@H]([C@H]2C)[C@]1(C)O | 0.935 | 0.829
42 | O=C1CC2(CCCC2)CC(=O)N1CCCCN1CCN(c2ncccn2)CC1 | 0.949 | 0.87
43 | O=C1Nc2nc(-c3c(O)cccc3OCC3CC3)cc([C@@H]3CCCNC3)c2CO1 | 0.574 | 0.66
44 | CC1(C)CC[C@]2(C(=O)O)CC[C@]3(C)C(=CC[C@@H]4[C@@]5(C)CC[C@H](O)[C@@](C)(CO)[C@@H]5CC[C@]43C)[C@@H]2C1 | 0.969 | 0.905
45 | CNC(C)C1CCC(N)C(OC2C(N)CC(N)C(OC3OCC(C)(O)C(NC)C3O)C2O)O1 (stereo not drawn) | 1.04 | 1.08
46 | Cc1c(F)cc(C(=O)NC2CC2)cc1-c1ccc(C(=O)NCC(C)(C)C)cn1 | 0.786 | 0.934
47 | N#Cc1cc(-c2n[nH]c(-c3ccncc3)n2)ccn1 | 1.13 | 1.01
48 | CCn1ccnc1CC1COc2ccccc2O1 (stereo not drawn) | 0.818 | 0.86
49 | O=C(/C=C/c1ccc(CN(CCO)CCc2c[nH]c3ccccc23)cc1)NO | 0.472 and 0.431 | 0.317 and 0.283
50 | CCOC(=O)C12CC1/C(=N/O)c1ccccc1O2 (stereo not drawn) | 1.09 | 1.02
51 | Cc1nc(-c2cn3c(n2)-c2ccc(-c4cnn(C(C)(C)C(N)=O)c4)cc2OCC3)n(C(C)C)n1 | 0.464 | 0.356
52 | CC(C)(C)c1ccc(-c2nc3ccccc3[nH]2)cc1 | 0.03 | 0.034
53 | C=CCN1CCc2c(cc(O)c(O)c2Br)[C@@H](c2ccccc2)C1 | 0.467 | 0.633
54 | C[C@@H]1C[C@H]2[C@@H]3C[C@H](F)C4=CC(=O)C(Cl)=C[C@]4(C)[C@@]3(F)[C@@H](O)C[C@]2(C)[C@@]1(O)C(=O)CO | 0.765 | 0.857

Row | SMILES | PER2::LUC luminescence (time after treatment 24 h) | PER2::LUC luminescence (time after treatment 30 h)
55 | COC(=O)N(C)c1c(N)nc(-c2nn(Cc3ccccc3F)c3ncccc23)nc1N | 1.06 | 0.859
56 | Nc1nc(NCCc2ccc(O)cc2)nc2nc(-c3ccco3)nn12 | 1.01 | 1.03
57 | CC1=C(CO)C(=O)O[C@@H]([C@@H](C)[C@H]2CC[C@H]3[C@@H]4C[C@H]5O[C@]56[C@@H](O)C=CC(=O)[C@]6(C)[C@H]4CC[C@]23C)C1 | 0.634 | 0.708
58 | C[C@H](O)C(=O)Nc1c(I)c(C(=O)NC(CO)CO)c(I)c(C(=O)NC(CO)CO)c1I | 0.785 | 1.12
59 | N[C@H](C(=O)O)c1cc(O)cc(O)c1 | 0.941 | 0.928
60 | CC(=O)OC1CC2CCC1(C)C2(C)C (stereo not drawn) | 1.18 | 1
61 | c1ccc(C(NCc2cccnc2)(c2ccccc2)c2ccccc2)cc1 | 1.07 | 1.14
62 | Cc1cccc(C#Cc2ccccc2)n1 | 1.56 and 1.59 and 1.5 | 1.16 and 1.75 and 1.47
63 | O=C(Nc1ncc([N+](=O)[O-])s1)c1ccc([N+](=O)[O-])c(Cl)c1 | 0.928 | 1.22
64 | O=c1cc[nH]c(=S)[nH]1 | 1.04 | 1.03 and 0.907
65 | C=CC(=O)Nc1ccc2ncnc(Nc3cccc(Br)c3)c2c1 | 0.541 | 0.431
66 | CCC(=O)c1c(O)cc(O)cc1O | 0.893 | 1.02
67 | FC(F)(Cl)C(F)(F)Cl | 0.958 | 0.896
68 | Nc1nc2[nH]c(=O)cnc2c(=O)[nH]1 | 1.04 | 0.986
69 | CC(C)(C)[C@]1(O)CCN2C[C@H]3c4ccccc4CCc4cccc(c43)[C@@H]2C1 (racemic) | 0.848 | 0.89
70 | CC(C)(C)[C@]1(O)CCN2C[C@H]3c4ccccc4CCc4cccc(c43)[C@@H]2C1 | 0.872 | 0.922
71 | O=C(/C=C\n1cnc(-c2cc(C(F)(F)F)cc(C(F)(F)F)c2)n1)NNc1ccccn1 | 0.279 | 0.224
72 | CC1Cc2ccccc2N1NC(=O)c1ccc(Cl)c(S(N)(=O)=O)c1 (stereo not drawn) | 1.14 | 0.894
73 | CCOCC(O)COc1ccc(NC(=O)CC[S+](C)C)cc1 (stereo not drawn) | 1.06 | 0.952
74 | CC(=O)O[C@@H]1CC2C(C)(C)C(=O)C3OC3[C@]2(C)C2CC[C@@]3(C)[C@H](c4ccoc4)OC(=O)C4OC43[C@@]21C (stereo partly drawn) | 0.987 | 1.03
75 | Nc1ccc(S(=O)(=O)Nc2ccnn2-c2ccccc2)cc1 | 1.09 | 1.04
76 | CN1CCN(CCOc2cc(OC3CCOCC3)c3c(Nc4c(Cl)ccc5c4OCO5)ncnc3c2)CC1 | 0.346 | 0.318
77 | O=C(NCC(O)CO)c1c(I)c(C(=O)NCC(O)CO)c(I)c(N(CCO)C(=O)CO)c1I (stereo not drawn) | 0.965 | 0.962
78 | CO/N=C(\C(=O)N[C@@H]1C(=O)N2C(C(=O)O)=C(COC(N)=O)CS[C@H]12)c1ccco1 | 1.04 | 0.972
79 | O=C(O)C1=CCCNC1 | 0.896 and 0.955 | 1.01 and 0.937
